The target in the assay is T1, HAUSP (herpesvirus-associated ubiquitin-specific protease), full-length (human, UniProt Q93009 1-1102, 35S-labeled when in vitro translated).
T1 construct: Used for untagged full-length HAUSP: in vitro translated 35S-labeled protein in GST pull-downs, and endogenous HAUSP of H1299, H460 and U2OS cells; also called USP7; human USP7
The assay can be described thus: affinity chromatography of H1299 nuclear extract; silver-stained SDS-PAGE.

B1: GST (other)
chain: not shown
notes: also called GST alone; GST column
B1: the binding result is on record as “no binding”.

The values are drawn from patent US20040265931A1 (TRUSTESS OF COLUMBIA UNIVERSITY IN THE CITY OF NEW YORK, published 2004).
